# Source: the supplement of paper PMC8728848
# Some of the results follow.
# What was measured:
# Assay in all cases: glycan array binding signal (z-score within array); higher = stronger binding
# Conditions in all cases: glycan notation: IUPAC condensed, linker removed
# [1] = target: Fuc(a1-2)Gal(b1-4)GlcNAc(b1-2)[Fuc(a1-2)Gal(b1-4)GlcNAc(b1-4)]Man(a1-3)[Fuc(a1-2)Gal(b1-4)GlcNAc(b1-2)Man(a1-6)]Man(b1-4)GlcNAc(b1-4)GlcNAc
# How it was run: (§1)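 Glycan array binding is given as a within-array Z-score, which can be read as non-binding when negative. The arrays, 3228 of them, came from the Consortium for Functional Glycomics database and were retained only where the protein sequence was available. Z-scores were averaged across arrays of the same protein sequence at different concentrations or buffers and across linkers.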
# [2] = target: Fuc(a1-2)Gal(b1-4)GlcNAc(b1-3)Gal(b1-4)GlcNAc
# How it was run: as §1
# [3] = target: Fuc(a1-2)Gal(b1-4)GlcNAc(b1-3)Gal(b1-4)GlcNAc(b1-2)Man(a1-3)[Fuc(a1-2)Gal(b1-4)GlcNAc(b1-3)Gal(b1-4)GlcNAc(b1-2)Man(a1-6)]Man(b1-4)GlcNAc(b1-4)GlcNAc
# How it was run: as §1
# [4] = target: Fuc(a1-2)Gal(b1-4)GlcNAc(b1-3)Gal(b1-4)GlcNAc(b1-3)Gal(b1-4)GlcNAc
# How it was run: as §1
# [5] = target: Fuc(a1-2)Gal(b1-4)GlcNAc(b1-3)GalNAc
# How it was run: as §1
# [6] = target: Fuc(a1-2)Gal(b1-4)GlcNAc(b1-3)[Fuc(a1-2)Gal(b1-4)GlcNAc(b1-6)]GalNAc
# How it was run: as §1
# [7] = target: Fuc(a1-2)Gal(b1-4)GlcNAc(b1-3)[Fuc(a1-3)[Gal(b1-4)]GlcNAc(b1-6)]Gal(b1-4)Glc
# How it was run: as §1
# [8] = target: Fuc(a1-2)Gal(b1-4)GlcNAc(b1-6)GalNAc
# How it was run: as §1
# [9] = target: Fuc(a1-2)Gal(b1-4)GlcNAc6S
# How it was run: as §1
# [10] = target: Fuc(a1-2)Gal(b1-4)[Fuc(a1-3)]GlcNAc
# How it was run: as §1
# [11] = target: Fuc(a1-2)Gal(b1-4)[Fuc(a1-3)]GlcNAc(b1-2)Man(a1-3)[Fuc(a1-2)Gal(b1-4)[Fuc(a1-3)]GlcNAc(b1-2)Man(a1-6)]Man(b1-4)GlcNAc(b1-4)GlcNAc
# How it was run: as §1
# [12] = target: Fuc(a1-2)Gal(b1-4)[Fuc(a1-3)]GlcNAc(b1-2)Man(a1-3)[Fuc(a1-2)Gal(b1-4)[Fuc(a1-3)]GlcNAc(b1-2)Man(a1-6)]Man(b1-4)GlcNAc(b1-4)[Fuc(a1-6)]GlcNAc
# How it was run: as §1
# [13] = target: Fuc(a1-2)Gal(b1-4)[Fuc(a1-3)]GlcNAc(b1-2)[Fuc(a1-2)Gal(b1-4)[Fuc(a1-3)]GlcNAc(b1-4)]Man(a1-3)[Fuc(a1-2)Gal(b1-4)[Fuc(a1-3)]GlcNAc(b1-2)Man(a1-6)]Man(b1-4)GlcNAc(b1-4)GlcNAc
# How it was run: as §1
# [14] = target: Fuc(a1-2)Gal(b1-4)[Fuc(a1-3)]GlcNAc(b1-3)Gal(b1-4)[Fuc(a1-3)]GlcNAc
# How it was run: as §1
# [15] = target: Fuc(a1-2)Gal(b1-4)[Fuc(a1-3)]GlcNAc(b1-3)Gal(b1-4)[Fuc(a1-3)]GlcNAc(b1-3)Gal(b1-4)[Fuc(a1-3)]GlcNAc
# How it was run: as §1
# [16] = target: Fuc(a1-2)Gal(b1-4)[Fuc(a1-3)]GlcNAc(b1-3)GalNAc
# How it was run: as §1
# [17] = target: Fuc(a1-2)Gal(b1-4)[Fuc(a1-3)]GlcNAc(b1-3)[Neu5Ac(a2-6)Gal(b1-4)GlcNAc(b1-6)]Gal(b1-4)Glc
# How it was run: as §1
# [18] = target: Fuc(a1-2)Gal3S(b1-4)GlcNAc
# How it was run: as §1
# [19] = target: Fuc(a1-2)Gal6S(b1-3)GlcNAc
# How it was run: as §1
# [20] = target: Fuc(a1-2)Gal6S(b1-3)GlcNAc6S
# How it was run: as §1
# [21] = target: Fuc(a1-2)Gal6S(b1-4)Glc
# How it was run: as §1
# [22] = target: Fuc(a1-2)Gal6S(b1-4)Glc6S
# How it was run: as §1
# [23] = target: Fuc(a1-2)Gal6S(b1-4)GlcNAc
# How it was run: as §1
# [24] = target: Fuc(a1-2)[Gal(a1-3)]Gal
# How it was run: as §1
# [25] = target: Fuc(a1-2)[Gal(a1-3)]Gal(b1-3)GalNAc
# How it was run: as §1
# [26] = target: Fuc(a1-2)[Gal(a1-3)]Gal(b1-3)GalNAc(b1-3)Gal(a1-4)Gal(b1-4)Glc
# How it was run: as §1
# [27] = target: Fuc(a1-2)[Gal(a1-3)]Gal(b1-3)GlcNAc
# How it was run: as §1
# [28] = target: Fuc(a1-2)[Gal(a1-3)]Gal(b1-3)GlcNAc(b1-2)Man(a1-3)[Fuc(a1-2)[Gal(a1-3)]Gal(b1-3)GlcNAc(b1-2)Man(a1-6)]Man(b1-4)GlcNAc(b1-4)GlcNAc
# How it was run: as §1
# [29] = target: Fuc(a1-2)[Gal(a1-3)]Gal(b1-3)GlcNAc(b1-2)Man(a1-3)[Fuc(a1-2)[Gal(a1-3)]Gal(b1-3)GlcNAc(b1-2)Man(a1-6)]Man(b1-4)GlcNAc(b1-4)[Fuc(a1-6)]GlcNAc
# How it was run: as §1
# [30] = target: Fuc(a1-2)[Gal(a1-3)]Gal(b1-3)GlcNAc(b1-3)GalNAc
# How it was run: as §1
binder,measurement,setting,value
"Gal 4 (Mus musculus), P56470 (protein) MAYVPAPGYQPTYNPTLPYYQPIPGGLNVGMSVYIQGVASEHMKRFFVNFVVGQDPGSDVAFHFNPRFDGWDKVVFNTLQGGKWGSEERKRSMPFKKGAAFELVFIVLAEHYKVVVNGNPFYEYGHRLPLQMVTHLQVDGDLQLQSINFIGGQPLRPQGPPMMPPYPGPGHCHQQLNSLPTMEGPPTFNPPVPYFGRLQGGLTARRTIIIKGYVPPTGKSFAINFKVGSSGDIALHINPRMGNGTVVRNSLLNGSWGSEEKKITHNPFGPGQFFDLSIRCGLDRFKVYANGQHLFDFAHRLSAFQRVDTLEIQGDVTLSYVQI",glycan array binding signal (z-score),[1],-0.182
same,glycan array binding signal (z-score),[2],-0.19
same,glycan array binding signal (z-score),[3],-0.262
same,glycan array binding signal (z-score),[4],-0.163
same,glycan array binding signal (z-score),[5],-0.246
same,glycan array binding signal (z-score),[6],-0.227
same,glycan array binding signal (z-score),[7],-0.334
same,glycan array binding signal (z-score),[8],-0.289
same,glycan array binding signal (z-score),[9],-0.187
same,glycan array binding signal (z-score),[10],-0.234
same,glycan array binding signal (z-score),[11],-0.142
same,glycan array binding signal (z-score),[12],-0.316
same,glycan array binding signal (z-score),[13],-0.202
same,glycan array binding signal (z-score),[14],-0.219
same,glycan array binding signal (z-score),[15],-0.235
same,glycan array binding signal (z-score),[16],-0.167
same,glycan array binding signal (z-score),[17],-0.305
same,glycan array binding signal (z-score),[18],-0.24
same,glycan array binding signal (z-score),[19],-0.29
same,glycan array binding signal (z-score),[20],-0.297
same,glycan array binding signal (z-score),[21],-0.216
same,glycan array binding signal (z-score),[22],-0.211
same,glycan array binding signal (z-score),[23],-0.199
same,glycan array binding signal (z-score),[24],-0.209
same,glycan array binding signal (z-score),[25],0.665
same,glycan array binding signal (z-score),[26],-0.305
same,glycan array binding signal (z-score),[27],2.26
same,glycan array binding signal (z-score),[28],1.92
same,glycan array binding signal (z-score),[29],0.409
same,glycan array binding signal (z-score),[30],1
